The results in this text go back to article PMC6212790.

This is one part of the list. At the low end of the ranking the order means little.

This experiment has as its target T1, GST-Rok (full length) (UniProt O34857).
T1 sequence: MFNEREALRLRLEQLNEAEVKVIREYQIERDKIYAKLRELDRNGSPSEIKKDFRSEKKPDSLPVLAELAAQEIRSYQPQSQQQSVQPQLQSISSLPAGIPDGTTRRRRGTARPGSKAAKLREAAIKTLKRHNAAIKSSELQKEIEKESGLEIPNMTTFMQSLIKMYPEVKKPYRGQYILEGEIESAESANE
In words: protein binding microarray.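 Also: rank score from −0.5 (least bound) to 0.5 (best bound).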 The following applies: Rok is a gene silencer of Bacillus subtilis; high values mean tight binding; most listed sequences are background and not binding sites; double strand, one strand shown.
For AGAGCGTC, the binding signal is -0.225 E-score. Consider AAGTCAAC, for which the binding signal is -0.021 E-score. Then ACGTGACC, with -0.0612 E-score. As for GCTAAGTA, the figure is 0.147 E-score; as for ACGTTTCC, -0.0724 E-score. The sequence ACCAGTAT had a binding signal of 0.255 E-score. On to AGTATGTC, for which the binding signal was determined as 0.154 E-score.

Sequence CGTACCCC had a binding signal of -0.301 E-score. In turn, GATGATTA came in with a binding signal of 0.229 E-score. As for CAGACACG, the figure is 0.00984 E-score; as for ACCTTTAC, 0.0562 E-score; as for ATAATTTA, 0.397 E-score. As for ACAGTTTC, the figure is -0.0134 E-score; as for AGCCCGAA, -0.159 E-score. As for CTGATAGC, the figure is 0.14 E-score; as for AGCTTGTA, 0.228 E-score. As for CCACTGAC, the binding signal was -0.105 E-score. Take AATTCACT: the binding signal was 0.0674 E-score.

As for ACGCCCTG, the binding signal is -0.384 E-score. On to ATGTCAAG, for which the binding signal was 0.0919 E-score. On to GAGGTGCA, for which the binding signal is -0.246 E-score. In turn, AACACTAA yielded a binding signal of 0.152 E-score. As for CGAAACTC, the figure is -0.0462 E-score; as for GACTCTCC, -0.153 E-score; as for ACTAGTAT, 0.422 E-score.

CACTTGCA came in with a binding signal of -0.0121 E-score. In turn, AAAAGCTT had a binding signal of -0.035 E-score.

ACTCAGTA registered a binding signal of 0.167 E-score. For ACATCGTC, the binding signal was 0.128 E-score. On to CGGTATTA, for which the binding signal came out at 0.257 E-score. In turn, ACATCTCG displayed a binding signal of -0.0379 E-score. Turning to ACCACTAA, the binding signal was 0.172 E-score. Consider ATGGCACC, for which the binding signal was -0.128 E-score. CATTCGGG had a binding signal of -0.163 E-score.

For GAAATTGA, the binding signal was 0.0154 E-score. Turning to CGCGAACG, the binding signal is -0.101 E-score.

Sequence CACCAGAA gave a binding signal of -0.0113 E-score. Regarding AGCTGTAG, the binding signal was determined as 0.11 E-score.

With AGAAAGTG, the binding signal is 0.115 E-score.

Regarding CCAACAAA, the binding signal is -0.0217 E-score. In turn, CTCACCAG returned a binding signal of -0.15 E-score. Consider ACGTCTCG, for which the binding signal is -0.172 E-score. The sequence CCTAGCGC returned a binding signal of -0.112 E-score. On to AGGGTCCG, for which the binding signal is -0.278 E-score. The sequence CCCAGCCA returned a binding signal of -0.373 E-score.

Consider CAAGGGTG, for which the binding signal is -0.0861 E-score. The sequence ACTGCGCC displayed a binding signal of -0.255 E-score.

Turning to CCGGACAG, the binding signal was -0.222 E-score.

AGGCGTCA gave a binding signal of -0.313 E-score. Take CCATCGAG: the binding signal was determined as 0.047 E-score. Sequence CGACGTAC returned a binding signal of -0.0209 E-score. In turn, AATGCCAG displayed a binding signal of -0.0573 E-score. In the case of AAAAAGCC, the binding signal was -0.0675 E-score. For the sequence GCTTAAAA, the binding signal is -0.00971 E-score. Turning to ACCTGGCC, the binding signal is -0.116 E-score. Regarding AGATGCAG, the binding signal was -0.053 E-score. GAACATAA showed a binding signal of 0.168 E-score. In turn, CTGCTTCC yielded a binding signal of -0.198 E-score.

The sequence AATAAGTC gave a binding signal of 0.21 E-score.

Turning to CCTTAGCC, the binding signal is -0.143 E-score.

Sequence ATTACTTA gave a binding signal of 0.301 E-score. As for ATCGTTGA, the figure is -0.0442 E-score. Consider CGTAACTA, for which the binding signal was found to be 0.304 E-score. Take ATAGACGA: the binding signal came to 0.0654 E-score. In turn, ACCCCCGG showed a binding signal of -0.354 E-score. Turning to CATTGGAC, the binding signal was -0.0936 E-score. For CACGTCGA, the binding signal was 0.132 E-score.

ACTAGAAG registered a binding signal of 0.215 E-score.

Take CCTTAGAA: the binding signal was 0.106 E-score. ATACGATA showed a binding signal of 0.366 E-score.

Turning to GGAGCAAA, the binding signal was -0.202 E-score.

ACTGTACG gave a binding signal of 0.0892 E-score.

Turning to AAAGTATA, the binding signal was determined as 0.293 E-score.

For CAGCTAAG, the binding signal is -0.00322 E-score.

On to TGCAACAA, for which the binding signal was 0.163 E-score. CCCTTGTA returned a binding signal of 0.0458 E-score. CAATTATA: the binding signal amounted to 0.363 E-score. Sequence ACAGGCCG came in with a binding signal of -0.0161 E-score. In the case of AGGTCCTA, the binding signal is -0.0844 E-score.

In turn, CGTCACTA had a binding signal of -0.0147 E-score. Take AACGTGGT: the binding signal is -0.00331 E-score.

On to CTATCGGA, for which the binding signal was 0.187 E-score. As to GGAAGCCA, the binding signal is -0.211 E-score. Then AGGGGAAG, with -0.285 E-score. As for ATCCACTG, the figure is -0.0344 E-score; as for ACGGATAG, 0.0888 E-score.

On to CCCGTCCA, for which the binding signal was -0.168 E-score. With CGCGTTGA, the binding signal is 0.177 E-score. For the sequence ACTGCGAA, the binding signal was 0.0649 E-score. As to AAACAATT, the binding signal came out at 0.207 E-score. Then CTGGATAC, with -0.00847 E-score; and GACGGAGA, with -0.129 E-score; and ACTTACGG, with -0.0522 E-score. Turning to ATGTTACC, the binding signal is 0.175 E-score. Then TTCGGAAA, with -0.0414 E-score; and GACATAAA, with 0.0931 E-score. In turn, CCATATCG had a binding signal of -0.0398 E-score. Sequence GTTTTCTA yielded a binding signal of 0.248 E-score. In the case of ACATGTAA, the binding signal came to 0.221 E-score. In the case of TGCACGCA, the binding signal is -0.184 E-score. In the case of CGGGTCTA, the binding signal is -0.153 E-score. Then CCAGAAAA, with -0.171 E-score. CTAGTGGA had a binding signal of -0.0164 E-score. Then CCTGCGTC, with -0.424 E-score. The sequence GTCTGGGA had a binding signal of -0.214 E-score. As for AGCGGACT, the figure is -0.23 E-score; as for GAGTCGGC, -0.169 E-score; as for CTGCCGCA, -0.299 E-score.

Consider CTAGCCTA, for which the binding signal came out at 0.0833 E-score. ATTTATGC registered a binding signal of 0.191 E-score.
